Results published in publication PMC12040169 (PLOS Biology, 2025).
The other results are listed elsewhere or left out.

The compounds below were run on T1, C. trachomatis L2/434/Bu expressing GFP (CTL2-GFP). Conditions: total inclusion area; 28.5 h, 10 µM; inhibitor.
T1 construct: L2/434/Bu GFP intracellular growth in HeLa cells
Design: species or system HeLa; C. trachomatis total inclusion area by high-content imaging, normalised to DMSO
Procedure, shortened: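 High-content imaging followed the bulk GFP/resorufin measurement: fixed, Hoechst-stained cells were scored for GFP inclusions and host nuclei per well. Total inclusion area and count served as growth proxies, nuclei number as the viability proxy. MIC calculation matched the bulk assay.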

SMILES	% of control remaining
O=C(CSc1n[nH]c(-c2ccccc2Cl)n1)Nc1ccccc1F [CBK265901]	83.729
CN1CCN(S(=O)(=O)c2ccc(NC(=O)c3cc(-c4ccncc4)nc4ccc(Cl)cc34)cc2)CC1 [CBK267730]	68.1859
COc1ccc(C)cc1NC(=O)CSc1nnc(-c2ccccc2Cl)n1-c1ccccc1 [CBK267538]	81.0169
CCOC(CCNC(=O)c1cnc(Nc2ccccc2OC)c2ccccc12)OCC [CBK291184]	26.9153
O=C(CCn1cccn1)N1Cc2ccccc2CC1C1CCOCC1 (stereo not shown) [CBK282262]	82.7393
N#Cc1cc(SCCC(=O)O)c(N2CCOCC2)cc1C#N [CBK269212]	109.962
CCOC(=O)C1(C2CCCCC2)CCN(C(=O)c2cccnc2)CC1 [CBK137104T]	80.2772
CC(C)(C)c1cn(C[C@H]2CC3CCN2C[C@@H]3C(=O)NCc2ccc(F)cc2)nn1 (stereo partly shown) [CBK289081]	105.413
Fc1c(F)c(Oc2ccccc2Cl)c(F)c(F)c1/C=C/CN1CCOCC1 [CBK269318C]	99.3602
CCN(CC)C(=O)c1sccc1NS(=O)(=O)c1ccc(OC)c(OC)c1 [CBK004596]	121.751
COc1ccc(C2CC(c3c(-c4ccccc4)c4cc(Cl)ccc4[nH]c3=O)=NN2C(=O)CCC(=O)O)cc1OC (stereo not shown) [CBK296128]	130.802
O=c1c2ccccc2[nH]c(=S)n1CCCN1CCC(Cc2ccccc2)CC1 [CBK267952]	100.981
O=C1c2ccccc2NC(c2cnc3ccccc3n2)N1O (stereo not shown) [CBK288357]	57.5269
CSc1ccc(-c2cn3ccnc3c(Nc3ccccc3)n2)cc1 [CBK066537]	143.065
C=CCN1C(=O)CC2(C1=O)C(=O)N(C)c1ccccc12 (stereo not shown) [CBK075472]	94.6425
CCOC(=O)c1ccc(C2=NCCC2)[nH]1 [CBK011191]	86.103
O=C(Oc1ccc(F)cc1C(=O)/C=C/c1ccccc1F)c1cccc([N+](=O)[O-])c1 [CBK264859]	39.9261
O=S(=O)(Nc1cccc2cc[nH]c12)c1ccc(F)cc1F [CBK153586]	111.456
CC(C)n1ccc2cc(C(=O)NC3CCOC(C)(C)C3)ccc21 (stereo not shown) [CBK304366]	45.3297
O=C(NCCCNc1ccc(C(F)(F)F)cc1[N+](=O)[O-])c1ccc(Cl)cc1 [CBK263721]	116.368
Cc1nc(S(=O)(=O)N2CCC(C(=O)N3CCCCCC3)CC2)cn1C [CBK305765]	29.229
Cc1cc(O)nc(C(C)N2CCN(Cc3noc(C(C)(C)C)n3)CC2)n1 (stereo not shown) [CBK305249]	108.467
CCCN1C[C@@H](O)C[C@H]2[C@H](O)[C@@H]1c1ccccc1N2C(=O)OC [CBK007809]	72.2581
CSc1ccccc1-n1nnnc1SCc1ccccc1 [CBK099033]	78.8926
CCNC(=O)C1(Cc2ccccc2-c2ccccc2C)CCN(C(=O)C2CCCCC2)CC1 [CBK285717]	85.4731

SMILES	% of control remaining
COCC(=O)N1CCN(C(=O)c2cccc(F)c2)C[C@H]1C(=O)OC [CBK289608]	90.12
CS(=O)(=O)c1ccc(-n2nnnc2CN2CCC3(CCC3)C2)cc1 [CBK306262]	29.2511
Cc1ccc(Cc2cnc(NC(=O)CN3CSCC3=O)s2)cc1Cl [CBK305001]	69.8111
COc1ccc(C(C)C)cc1-c1cn2ccnc2c(Nc2cccc(OC(F)(F)C(F)F)c2)n1 [CBK038049]	125.955
O=C1OC[C@@H](c2ccccc2)N1C(=O)[C@@H]1CN(Cc2ccccc2)C[C@H]1c1cc2ccccc2o1 [CBK022599C]	9.673
Cn1cc(C2CCCCN2C(=O)c2cccc(C#N)c2)cn1 (stereo not shown) [CBK304611]	32.8049
N#Cc1cccc(CN2C[C@H](O)C[C@H]2c2nc(-c3ccc4c(c3)OCO4)no2)c1 [CBK288866]	87.843
O=S1(=O)CCC(c2nc(-c3ccc(Br)o3)no2)C1 (stereo not shown) [CBK306134]	41.4105
CSc1ccccc1C(=O)NCCN(C)C [CBK269757]	84.9906
O=C(CS(=O)(=O)c1ccccc1)Nc1ccc(OCc2ccccc2)cc1 [CBK269421]	91.0297
CN1CCN(C(=O)c2ccc(-c3nccnc3NCCc3cccnc3)cc2)CC1 [CBK036838]	106.334
CCC1CCc2c(sc(NC(=O)c3cc(-c4ccc(C)cc4C)nc4ccccc34)c2C(=O)OC)C1 (stereo not shown) [CBK262629]	109.62
O=C(O)c1cccc(NC(=O)c2cnc(-c3cccc(C(F)(F)F)c3)c(-c3cccc(CO)c3)c2)c1 [CBK037565]	101.342
O=C(Nc1cccc(-c2csnn2)c1)c1ccco1 [CBK270255]	85.4825
O=C1N/C(=N/c2ccccc2Cl)S/C1=C/c1ccc(-c2ccccc2Cl)o1 [CBK067752]	77.6111
N=C(N)SCP(=O)(c1ccccc1)c1ccccc1 [CBK260990]	82.0687
Cc1cccc(C=C(Cl)c2nc3sc(C(=O)O)c(C)c3c(=O)[nH]2)c1 [CBK295626]	87.7847
O=C(COc1cccnc1)N[C@H]1C2CCCCC2[C@@H]1c1ccccc1 (stereo partly shown) [CBK282951]	106.965
NC(=O)NC(CC(=O)N1CCCC1c1ccncc1)c1cccc(Br)c1 (stereo not shown) [CBK306345]	55.7097
COc1cccc2cc(C(=O)C3=C(O)C(=O)N(CCN4CCOCC4)C3c3cccs3)oc12 (stereo not shown) [CBK269433]	110.191
Cc1sc2ncn(CC(=O)NCc3nnc4n3CCC4)c(=O)c2c1C [CBK305654]	59.7462
O=C(NCCc1ccccc1)c1cc(Br)cnc1NCCCn1ccnc1 [CBK076421]	88.7624
CN1CCN(c2nccnc2-c2ccoc2)CC1 [CBK088834]	125.58
Cc1ccc2c(N)c(C(=O)c3cccs3)sc2n1 [CBK115369]	67.7978
